In patent US8067379B2, “Sulfur compounds as inhibitors of hepatitis C virus NS3 serine protease” (Schering Corporation, priority 2004, dated 2011):
Starred links: 1 amine or outer side, 2 acyl side, 3 side chain; linkers in the order of their positions; H or OH if unused. Non-standard residues stand in square brackets, D forms with d. Residues, ends and D or L forms follow the SMILES beside them. *: point of attachment. Pro(3R,4S-CMe2) = CC1(C)[C@@H]2[C@@H](C(=O)O)NC[C@@H]21; Gly(1-Me-cHex) = CC1([C@H](N)C(=O)O)CCCCC1; X2 = O=C(C(=O)[*:2])C(CC1CC1)N[*:1]; X3 = CC(C)(C)S(=O)(=O)CC1(N*)CCCCC1; Phg = N[C@H](C(=O)O)c1ccccc1; CO = O=C([*:1])[*:2]

Target: Recombinant heterodimeric HCV NS3/NS4A protease (strain 1a) (Hepatitis C virus genotype 1a, UniProt P27958)
Assay: Spectrophotometric assay for HCV serine protease inhibitory activity (chromogenic ester substrates)
Type: biochemical
Conditions: Table 3, sulfone compounds; HCV serine protease; read-out: Ki* range

SMILES | Ki
C#CCCC(NC(=O)[C@@H]1[C@@H]2[C@H](CN1C(=O)[C@@H](NC(=O)NC1(CS(=O)(=O)C(C)(C)C)CCCCC1)C1CCCCC1)C2(C)C)C(=O)C(=O)NCC=C (stereo partly shown) [Compound 269] | < 75 nM
CC1(C)[C@@H]2[C@@H](C(=O)NC(CC3CC3)C(=O)C(N)=O)N(C(=O)[C@@H](NC(=O)NC3(CS(=O)(=O)C(C)(C)C)CCCCC3)C3Cc4ccccc4C3)C[C@@H]21 (stereo partly shown) [Compound 270] | < 75 nM
CC1(C)[C@@H]2[C@@H](C(=O)NC(CC3CC3)C(=O)C(N)=O)N(C(=O)[C@@H](NC(=O)NC3(CS(=O)(=O)C(C)(C)C)CCCCC3)C3CCCCC3)C[C@@H]21 (stereo partly shown) [Compound 271] | < 75 nM
C#CCCC(NC(=O)[C@@H]1[C@@H]2[C@H](CN1C(=O)[C@@H](NC(=O)NC1(CS(=O)(=O)C(C)(C)C)CCCCC1)C(C)(C)C)C21CC1)C(=O)C(=O)NCC=C (stereo partly shown) [Compound 272] | < 75 nM
C=CCCNC(=O)C(=O)C(CCC=C)NC(=O)[C@@H]1[C@@H]2[C@H](CN1C(=O)[C@@H](NC(=O)NC1(CS(=O)(=O)C(C)(C)C)CCCCC1)C(C)(C)C)C2(C)C (stereo partly shown) [Compound 273] | < 75 nM
CC(C)(C)[C@H](NC(=O)NC1(CS(=O)(=O)C(C)(C)C)CCCCC1)C(=O)N1C[C@H]2[C@@H]([C@H]1C(=O)NC(C(=O)C(N)=O)C1CCC1)C2(C)C (stereo partly shown) [Compound 274] | < 75 nM
C=CCNC(=O)C(=O)C(CCCC)NC(=O)[C@@H]1[C@@H]2[C@H](CN1C(=O)[C@@H](NC(=O)NC1(CS(=O)(=O)C(C)(C)C)CCCCC1)C(C)(C)C)C2(C)C (stereo partly shown) [Compound 275] | < 75 nM
C=CCNC(=O)C(=O)C(CCC)NC(=O)[C@@H]1[C@@H]2[C@H](CN1C(=O)[C@@H](NC(=O)NC1(CS(=O)(=O)C(C)(C)C)CCCCC1)C1Cc3ccccc3C1)C2(C)C (stereo partly shown) [Compound 276] | < 75 nM
C#CCCC(NC(=O)[C@@H]1[C@@H]2[C@H](CN1C(=O)[C@@H](NC(=O)NC1(CS(=O)(=O)C(C)(C)C)CCCCC1)C1Cc3ccccc3C1)C2(C)C)C(=O)C(=O)NCC=C (stereo partly shown) [Compound 277] | < 75 nM
CC(C)(C)[C@H](NC(=O)NC1(CS(=O)(=O)C(C)(C)C)CCCCC1)C(=O)N1C[C@H]2[C@@H]([C@H]1C(=O)NC(CC1CCC1)C(=O)C(N)=O)C21CCCC1 (stereo partly shown) [Compound 278] | < 75 nM
CC(C)(C)[C@H](NC(=O)NC1(CS(=O)(=O)C(C)(C)C)CCCCC1)C(=O)N1C[C@H]2[C@@H]([C@H]1C(=O)NC(CC1CCC1)C(=O)C(N)=O)C21CC1 (stereo partly shown) [Compound 279] | < 75 nM
CC(C)CCS(=O)(=O)CC1(NC(=O)N[C@H](C(=O)N2C[C@H]3[C@@H]([C@H]2C(=O)NC(CC2CC2)C(=O)C(N)=O)C3(C)C)C(C)(C)C)CCCCC1 (stereo partly shown) [Compound 280] | < 75 nM
C#CCCC(NC(=O)[C@@H]1[C@@H]2[C@H](CN1C(=O)[C@@H](NC(=O)NC1(CS(=O)(=O)CCC(C)C)CCCCC1)C(C)(C)C)C2(C)C)C(=O)C(=O)NCC=C (stereo partly shown) [Compound 281] | < 75 nM
CC(C)CCS(=O)(=O)CC1(NC(=O)N[C@H](C(=O)N2C[C@H]3[C@@H]([C@H]2C(=O)NC(CC2CCC2)C(=O)C(N)=O)C3(C)C)C(C)(C)C)CCCCC1 (stereo partly shown) [Compound 282] | < 75 nM
C=CCNC(=O)C(=O)C(CCC)NC(=O)[C@@H]1[C@@H]2[C@H](CN1C(=O)[C@@H](NC(=O)NC1(CS(=O)(=O)CCC(C)C)CCCCC1)C1Cc3ccccc3C1)C2(C)C (stereo partly shown) [Compound 283] | < 75 nM
C=CCNC(=O)C(=O)C(CC1CC1)NC(=O)[C@@H]1[C@@H]2[C@H](CN1C(=O)[C@@H](NC(=O)NC1(CS(=O)(=O)C(C)(C)C)CCCCC1)C1CCCCC1)C2(C)C (stereo partly shown) [Compound 284] | < 75 nM
C=CCCNC(=O)C(=O)C(CCC=C)NC(=O)[C@@H]1[C@@H]2[C@H](CN1C(=O)[C@@H](NC(=O)NC1(CS(=O)(=O)CCC(C)C)CCCCC1)C(C)(C)C)C2(C)C (stereo partly shown) [Compound 285] | < 75 nM
C=CCNC(=O)C(=O)C(CC1CC1)NC(=O)[C@@H]1[C@@H]2[C@H](CN1C(=O)[C@@H](NC(=O)NC1(CS(=O)(=O)C(C)(C)C)CCCCC1)C1Cc3ccccc3C1)C2(C)C (stereo partly shown) [Compound 286] | < 75 nM
C=CCNC(=O)C(=O)C(CCC)NC(=O)[C@@H]1[C@@H]2[C@H](CN1C(=O)[C@@H](NC(=O)N[C@@](C)(CC(C)C)CS(=O)(=O)C(C)(C)C)C(C)(C)C)C2(C)C (stereo partly shown) [Compound 287] | > 250 nM
C=CCNC(=O)C(=O)C(CC1CC1)NC(=O)[C@@H]1[C@@H]2[C@H](CN1C(=O)[C@@H](NC(=O)N[C@@](C)(CC(C)C)CS(=O)(=O)C(C)(C)C)C(C)(C)C)C2(C)C (stereo partly shown) [Compound 288] | > 250 nM

SMILES | Ki
C#CCCC(NC(=O)[C@@H]1[C@@H]2[C@H](CN1C(=O)[C@@H](NC(=O)N[C@@](C)(CC(C)C)CS(=O)(=O)C(C)(C)C)C(C)(C)C)C2(C)C)C(=O)C(=O)NCC=C (stereo partly shown) [Compound 289] | 75 to 250 nM
C=CCNC(=O)C(=O)C(CC1CC1)NC(=O)[C@@H]1[C@@H]2[C@H](CN1C(=O)[C@@H](NC(=O)NC1(CS(=O)(=O)C(C)(C)C)CCCCC1)C1(C)CCCCC1)C2(C)C (stereo partly shown) [Compound 290] | < 75 nM
C=CCNC(=O)C(=O)C(CC1CC1)NC(=O)[C@@H]1[C@@H]2[C@H](CN1C(=O)[C@@H](NC(=O)NC1(CS(=O)(=O)C(C)(C)C)CCCCC1)C(C)(C)C)C21CC1 (stereo partly shown) [Compound 291] | < 75 nM
C=CCNC(=O)C(=O)C(CC1CC1)NC(=O)[C@@H]1[C@@H]2[C@H](CN1C(=O)[C@@H](NC(=O)NC1(CS(=O)(=O)C(C)(C)C)CCCCC1)C(C)(C)C)C21CCCC1 (stereo partly shown) [Compound 292] | < 75 nM
C=CCNC(=O)C(=O)C(CC1CC1)NC(=O)[C@@H]1[C@@H]2[C@H](CN1C(=O)[C@@H](NC(=O)NC1(CS(=O)(=O)CCC(C)C)CCCCC1)C1CCCCC1)C2(C)C (stereo partly shown) [Compound 293] | < 75 nM
C=CCNC(=O)C(=O)C(CC1CC1)NC(=O)[C@@H]1[C@@H]2[C@H](CN1C(=O)[C@@H](NC(=O)NC1(CS(=O)(=O)CCC(C)C)CCCCC1)C1Cc3ccccc3C1)C2(C)C (stereo partly shown) [Compound 294] | < 75 nM
C=CCNC(=O)C(=O)C(NC(=O)[C@@H]1[C@@H]2[C@H](CN1C(=O)[C@@H](NC(=O)NC1(CS(=O)(=O)C(C)(C)C)CCCCC1)C(C)(C)C)C2(C)C)C1CCC1 (stereo partly shown) [Compound 295] | 75 to 250 nM
CC(C)C[C@@](C)(CS(=O)(=O)C(C)(C)C)NC(=O)N[C@H](C(=O)N1C[C@H]2[C@@H]([C@H]1C(=O)NC(CC1CCC1)C(=O)C(N)=O)C2(C)C)C(C)(C)C (stereo partly shown) [Compound 297] | < 75 nM
C=CCNC(=O)C(=O)C(CC1CC1)NC(=O)[C@@H]1[C@@H]2[C@H](CN1C(=O)[C@@H](NC(=O)NC1(CS(=O)(=O)CCC(C)C)CCCCC1)C(C)(C)C)C2(C)C (stereo partly shown) [Compound 298] | < 75 nM
CC(C)(C)[C@H](NC(=O)NC1(CS(=O)(=O)C(C)(C)C)CCCCC1)C(=O)N1C[C@H](OCc2ccccc2)C[C@H]1C(=O)NC(CC1CCC1)C(=O)C(N)=O (stereo partly shown) [Compound 299] | < 75 nM
CC(C)C[C@@](C)(CS(=O)(=O)C(C)(C)C)NC(=O)N[C@H](C(=O)N1C[C@H]2[C@@H]([C@H]1C(=O)NC(CC1CC1)C(=O)C(N)=O)C2(C)C)C(C)(C)C (stereo partly shown) [Compound 300] | 75 to 250 nM
C=CCNC(=O)C(=O)C(CCC)NC(=O)[C@@H]1C[C@@H](S(C)(=O)=O)CN1C(=O)[C@@H](NC(=O)OC(C)(C)C)C1CCCCC1 (stereo partly shown) [Compound 301] | < 75 nM
CC(C)(C)O[C@@H]1C[C@@H](C(=O)NC(CC2CCC2)C(=O)C(N)=O)N(C(=O)[C@@H](NC(=O)NC2(CS(=O)(=O)C(C)(C)C)CCCCC2)C2CCCCC2)C1 (stereo partly shown) [Compound 302] | < 75 nM
CC(C)(C)S(=O)(=O)CC1(NC(=O)N[C@H](C(=O)N2C[C@H](OCc3ccccc3)C[C@H]2C(=O)NC(CC2CCC2)C(=O)C(N)=O)C2CCCCC2)CCCCC1 (stereo partly shown) [Compound 303] | 75 to 250 nM
CC(C)(C)[C@H](NC(=O)NC1(CS(=O)(=O)C(C)(C)C)CCCCC1)C(=O)N1C[C@H]2[C@@H]([C@H]1C(=O)NC(C(=O)C(N)=O)C1CCC1)C21CC1 (stereo partly shown) [Compound 304] | > 250 nM
CC(C)(C)[C@H](NC(=O)NC1(C2CCCS2(=O)=O)CCCCC1)C(=O)N1C[C@H]2[C@@H]([C@H]1C(=O)NC(CC1CCC1)C(=O)C(N)=O)C2(C)C (stereo partly shown) [Compound 305] | 75 to 250 nM
CC(C)(C)[C@H](NC(=O)NC1(C2CCCS2(=O)=O)CCCCC1)C(=O)N1C[C@H]2[C@@H]([C@H]1C(=O)NC(CC1CC1)C(=O)C(N)=O)C2(C)C (stereo partly shown) [Compound 306] | < 75 nM
C=CCNC(=O)C(=O)C(CC1CC1)NC(=O)[C@@H]1[C@@H]2[C@H](CN1C(=O)[C@@H](NC(=O)NC1(C3CCCS3(=O)=O)CCCCC1)C(C)(C)C)C2(C)C (stereo partly shown) [Compound 307] | < 75 nM
CC(C)(C)[C@H](NC(=O)NC1(CS(=O)(=O)C(C)(C)C)CCCCC1)C(=O)N1C[C@H]2[C@@H]([C@H]1C(=O)NC(C(=O)C(N)=O)C1CCC1)C21CCCC1 (stereo partly shown) [Compound 308] | < 75 nM
CC(C)CCS(=O)(=O)CC1(NC(=O)N[C@H](C(=O)N2C[C@H](OC(C)(C)C)C[C@H]2C(=O)NC(CC2CCC2)C(=O)C(N)=O)C2CCCCC2)CCCCC1 (stereo partly shown) [Compound 309] | < 75 nM

Same assay, conditions: Table 3A; class symbols; read-out: Ki* Range

SMILES | Ki
CC(=O)CNC(=O)C(=O)C(CC1CC1)NC(=O)[C@@H]1[C@@H]2[C@H](CN1C(=O)[C@@H](NC(=O)NC1(CS(=O)(=O)C(C)(C)C)CCCCC1)C1(C)CCCCC1)C2(C)C (stereo partly shown) [Compound 412] | < 75 nM
CC1([C@H](NC(=O)NC2(CS(=O)(=O)C(C)(C)C)CCCCC2)C(=O)N2C[C@H]3[C@@H]([C@H]2C(=O)NC(CC2CC2)C(=O)C(=O)NC2CCC2)C3(C)C)CCCCC1 (stereo partly shown) [Compound 413] | < 75 nM
CCCNC(=O)C(=O)C(CC1CC1)NC(=O)[C@@H]1[C@@H]2[C@H](CN1C(=O)[C@@H](NC(=O)NC1(CS(=O)(=O)C(C)(C)C)CCCCC1)C1(C)CCCCC1)C2(C)C (stereo partly shown) [Compound 414] | < 75 nM
CN(C)C(=O)[C@@H](NC(=O)CNC(=O)C(=O)C(CC1CC1)NC(=O)[C@@H]1[C@@H]2[C@H](CN1C(=O)[C@@H](NC(=O)NC1(CS(=O)(=O)C(C)(C)C)CCCCC1)C1(C)CCCCC1)C2(C)C)c1ccccc1 (stereo partly drawn) [Compound 415] ({X3-CO}-[Gly(1-Me-cHex)][Pro(3R,4S-CMe2)][X2]G[Phg]-NMe2) | 75 to 250 nM
C=C(F)CNC(=O)C(=O)C(CCC)NC(=O)[C@@H]1[C@@H]2[C@H](CN1C(=O)[C@@H](NC(=O)NC1(CS(=O)(=O)C(C)(C)C)CCCCC1)C1(C)CCCCC1)C2(C)C (stereo partly shown) [Compound 416] | < 75 nM
C=CCNC(=O)C(=O)C(CCC1CC1)NC(=O)[C@@H]1[C@@H]2[C@H](CN1C(=O)[C@@H](NC(=O)NC1(CS(=O)(=O)C(C)(C)C)CCCCC1)C1(C)CCCCC1)C2(C)C (stereo partly shown) [Compound 417] | < 75 nM
